The target in assay [1] is Isolated Link module of human TSG-6 (Link_TSG6) (human, UniProt P98066 in part). Put plainly: SPR. On the technique in general: Surface plasmon resonance follows binding to a sensor surface in real time, without labels.
The target in assay [2] is Full-length, wild type recombinant human TSG-6 (human, UniProt P98066). Put plainly: SPR.

The results in this text go back to publication PMC3988464 (Journal of immunology (Baltimore, Md. : 1950), 2014).

For orientation: Kd means the equilibrium constant for the complex coming apart. What is called koff is a measure of how fast the partners let go of each other. In general, kon refers to the second-order rate constant of association.

B1: CXCL8_S (R68A) mutant (ligand)
chain: not shown
modifications: 72-residue mature form by convention (mature numbering +27 = precursor); monomer/dimer equilibrium
In assay [1], B1 had a dissociation constant (Kd) of 203 nM, an off-rate (koff) of 0.0017 s⁻¹ and a kon of 8400 M⁻¹ s⁻¹. In addition, in assay [2], the Kd came to 581 nM, the koff stood at 0.0018 s⁻¹ and the kon was found to be 3100 M⁻¹ s⁻¹.
